Data on 42 sequences can be found in publication PMC7819943, “Rice protein-binding microarrays: a tool to detect cis-acting elements near promoter regions in rice”.

This is one part of the list.

The test has as its target T1, OsWOX13 (Oryza sativa, UniProt Q5QMM3 1-267).
T1 sequence: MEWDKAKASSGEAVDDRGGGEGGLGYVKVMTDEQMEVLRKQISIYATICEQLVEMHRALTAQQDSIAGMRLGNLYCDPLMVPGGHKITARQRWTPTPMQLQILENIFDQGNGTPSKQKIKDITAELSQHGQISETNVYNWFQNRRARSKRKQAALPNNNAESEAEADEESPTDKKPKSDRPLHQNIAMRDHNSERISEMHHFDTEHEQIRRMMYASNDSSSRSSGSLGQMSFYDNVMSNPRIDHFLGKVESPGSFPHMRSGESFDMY
Briefly: protein-binding microarray (RPBM); PBS, 2% BSA, 51.3 ng/ul salmon testes DNA, 50 uM zinc acetate, 200 nM TF, 25 C, 1 h; high values mean tight binding. Conditions: protein: recombinant; tags: N-terminal polyhistidine and DsRed monomer fusion (pET32a); label: CyDye5-dUTP incorporated in the synthesized complementary strand; 3' TTTTT single-stranded linker to array surface; dsDNA, one strand shown. In a few lines: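 The binding signal is fluorescence intensity per array feature (arbitrary units). Readings came from an Axon 4000B scanner after a washed, 2% BSA-blocked, double-stranded custom Agilent array had been incubated for 1 h at 25 °C with 200 nM protein and 50 µM zinc acetate. The protein was a Ni–NTA-purified transcription factor fused N-terminally to polyhistidine and DsRed, expressed in E. coli BL21-CodonPlus.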
Regarding “CCTAATTAATCCGTCATTAGCAAATGTTTACTGTCACCACCGGAGTCACCTAGTGCAG”, the binding signal is 36200 fluorescence intensity (a.u.). The same measure for “GCAATAATCTGATTAATTAACGCGTTGTAGACACGCGGATCGGAGTCACCTAGTGCAG”: 21100 fluorescence intensity (a.u.). For “CCCCACTAATCACTAATGATCCAAAGGAATAAACCCTTCCCGGAGTCACCTAGTGCAG” the value was 8860 fluorescence intensity (a.u.); for “CTGTCTCATTTCAATTCACACTCAATCAATTCTCTTGCATCGGAGTCACCTAGTGCAG”, 6190 fluorescence intensity (a.u.); for “AGTGATGGCATTGACTGACTTGGGGAAGGAAACAATCGAGCGGAGTCACCTAGTGCAG”, 16000 fluorescence intensity (a.u.).

For “AATACTCAATTAATCATGAGCTAATAGCTCACATCGTTTCCGGAGTCACCTAGTGCAG”, the binding signal is 9430 fluorescence intensity (a.u.). For “GACTAATTGCTCCATGATTTAATAATGTGGTGTTACAGTACGGAGTCACCTAGTGCAG” the value was 47400 fluorescence intensity (a.u.); for “GCGATTTGGAGCGTCTGATTGGCCAAAGCATTGTTCATCACGGAGTCACCTAGTGCAG”, 6470 fluorescence intensity (a.u.). As to “ATAGGATTGAATAAGATTTCTCCTTTTGTTGTTCGAACTTCGGAGTCACCTAGTGCAG”, the binding signal is 15900 fluorescence intensity (a.u.). The same measure for “TTCTAGTCTCTTTCTAATCATGCACATTTAATAGTAAAGCCGGAGTCACCTAGTGCAG”: 5420 fluorescence intensity (a.u.); for “AGATGATTTCTGCAAACTCAACAGCCAATTGCAATGGGAACGGAGTCACCTAGTGCAG”: 9270 fluorescence intensity (a.u.). For “AGATTAATTAATAAAGCACATAGAAAGCCTTGTTAATTATCGGAGTCACCTAGTGCAG” the value was 6820 fluorescence intensity (a.u.); for “TTGTATTAGATGGACATTATGATACATATTATGTCCCTTTCGGAGTCACCTAGTGCAG”, 3300 fluorescence intensity (a.u.).

In the case of “CTTATTTATTTGTGATGATTTTAACTAATATTTGTTTCGACGGAGTCACCTAGTGCAG”, the binding signal is 8420 fluorescence intensity (a.u.). For “GGAAATTGCTTAAATAAACATTCGACATCGCCATAAGATTCGGAGTCACCTAGTGCAG” the value was 13200 fluorescence intensity (a.u.). “CAAAATTGACACTAACAAATATCGGAGTACAGTGTTACAACGGAGTCACCTAGTGCAG”: the binding signal was 24500 fluorescence intensity (a.u.). For “ATTAATTAGACTTAATAAATTGTCTCGCAGTTTATACGGCCGGAGTCACCTAGTGCAG” the value was 51300 fluorescence intensity (a.u.); for “TTAAATTTTCAAACTTAATTTTGACATTGATTTTGAGATTCGGAGTCACCTAGTGCAG”, 22100 fluorescence intensity (a.u.); for “ATCTTCACGTTAAACAATCCAAATTGGAGTATTTGAAAAGCGGAGTCACCTAGTGCAG”, 3820 fluorescence intensity (a.u.). For “CAGAAAGTATCTAGTACTAATCAATTAGGCAACTGTAATGCGGAGTCACCTAGTGCAG” the value was 4090 fluorescence intensity (a.u.). The same measure for “ATAAAATCTCTTAATTGCCAAAGACTTATCATTTGGAGTACGGAGTCACCTAGTGCAG”: 9100 fluorescence intensity (a.u.).

As for “GATCAAAAGAAATTTGCCAAATTTACTGCTTTGTGATGGGCGGAGTCACCTAGTGCAG”, the binding signal is 3610 fluorescence intensity (a.u.). For “GTAAAATTCCTCGTGATGACATGGACTGATATTTTCCCTGCGGAGTCACCTAGTGCAG”, the binding signal was 4550 fluorescence intensity (a.u.). “GGTTTATCGAATCATCGTTGATTACTCGATTGGTTAAGAACGGAGTCACCTAGTGCAG”: the binding signal is 3150 fluorescence intensity (a.u.). For the sequence “GCTATAGCCAATCAATATGAAATCGTTGTCTCCTACAGTACGGAGTCACCTAGTGCAG”, the binding signal was 14900 fluorescence intensity (a.u.). Consider “AAATTTGATGATATGATGGATGGATCCAGATGGGAGGAGTCGGAGTCACCTAGTGCAG”, for which the binding signal was 13200 fluorescence intensity (a.u.). The same measure for “CGTGCTAATTAGCCTGTCCTAATGATGACCATACGTACACCGGAGTCACCTAGTGCAG”: 31100 fluorescence intensity (a.u.); for “GTTTTAATGAAGCATGTAATTTATCTCTTCATTTAAATCTCGGAGTCACCTAGTGCAG”: 6380 fluorescence intensity (a.u.). Turning to “AATGATTTTATGGAGAAATCACTTCATCACAAGAGTGGAACGGAGTCACCTAGTGCAG”, the binding signal was 18800 fluorescence intensity (a.u.).

Take “ATAAAATGATTTTCCGACCATTTGAGCAATGCATCAAATGCGGAGTCACCTAGTGCAG”: the binding signal was 7300 fluorescence intensity (a.u.). For “AATCTAATAATTAATTTATACAATAATTAACTATAAATATCGGAGTCACCTAGTGCAG”, the binding signal is 17400 fluorescence intensity (a.u.). The same measure for “ATCTGATTAACCTTAGCTTCTTCGCATTAGACATACTACACGGAGTCACCTAGTGCAG”: 17800 fluorescence intensity (a.u.). In the case of “TAAACTGTACATGTATAATTAATAGATATCAAGCTAGCTACGGAGTCACCTAGTGCAG”, the binding signal is 6040 fluorescence intensity (a.u.).

With “TATCCCTTTGATTATCGTCGGTTACTCCTTTGCCATCTCCCGGAGTCACCTAGTGCAG”, the binding signal is 8050 fluorescence intensity (a.u.). For “ACGTCGAACCCACACTCACCAATCAATCCGCCTCTCCGCACGGAGTCACCTAGTGCAG”, the binding signal was 3660 fluorescence intensity (a.u.). The same measure for “TGTTGCTCCCTGATTGGGTCGAGCCGTGCGCATCTGCCGTCGGAGTCACCTAGTGCAG”: 11800 fluorescence intensity (a.u.). For “ACCAATTAATTAACCACGCTAGCCCAGAGTGATCGATAGCCGGAGTCACCTAGTGCAG” the value was 33600 fluorescence intensity (a.u.); for “AACACATGATTAATTAATTATAAACTAAAGTAACTTTAAACGGAGTCACCTAGTGCAG”, 41500 fluorescence intensity (a.u.); for “CCATCTGTGATACTTGTCTGATTAGCTCGATTTTATGAACCGGAGTCACCTAGTGCAG”, 7310 fluorescence intensity (a.u.). For “TAATTAATTGGGCCAAAATCCCTACTACATGCACCATTACCGGAGTCACCTAGTGCAG” the value was 18500 fluorescence intensity (a.u.); for “AGTCGCGATCCAATCAAGTAAATGCTGCAATTTCTCGTTGCGGAGTCACCTAGTGCAG”, 12800 fluorescence intensity (a.u.). Consider “ATTTGTTAATTTTGTTATAATTTGTAGAAGTTAAATTTGACGGAGTCACCTAGTGCAG”, for which the binding signal is 13700 fluorescence intensity (a.u.).
